Reference: PubChem BioAssay AID504832 (National Center for Advancing Translational Sciences (NCATS), 2011)
Screen size: about 310,000 compounds; about 18,000 (5.8%) were called active. Inconclusive results, whose numbers are uncertain, are shown with a selection of clear calls. Calls come from the whole dose curve; as a rule, active = well fitted inhibition curve with a large enough effect; inconclusive = small, poorly fitted or top-dose-only effect, or another doubt; inactive = no such curve, though single readings can be large or run the other way. Potencies of inconclusive entries are left out as doubtful fits.
Potency is the fitted concentration of half-maximal effect; tags give direction and shape of the fitted curve.

Test: Primary qHTS for delayed death inhibitors of the malarial parasite plastid, 48 hour incubation
Details: P. falciparum luciferase growth in erythrocytes; series mostly up to 28.7 µM
Summary of the method: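 In quantitative HTS format, infected erythrocytes bearing luciferase-reporter parasites were treated for a single generation at 37 C. Luminescence after adding detection reagent served as the growth measure.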
In the case of C[C@@H]1CC2C3CCC4=CC(=O)C=C[C@]4(C)[C@@]3(F)[C@@H](O)C[C@]2(C)[C@@]1(O)C(=O)COC(=O)c1cccc(S(=O)(=O)O)c1 (stereo partly drawn), the Potency is reported as “inactive”. In the case of Cc1c(C)c2c(OCC(=O)N3CCC(C(=O)NCC(C)C)CC3)cc3c(c2oc1=O)CCC(C)(C)O3, the Potency is reported as inconclusive [inhibitor, full curve]. In the case of NC(=S)Nc1nc2ccccc2s1, the Potency is reported as inconclusive [inhibitor, single point]. For O=C(N/N=C/c1cccc([N+](=O)[O-])c1)c1ccc(COc2ccccc2-c2ccccc2)cc1, the Potency was inconclusive [inhibitor, single point]. In the case of CC(C)OCCCn1c(NN)nc2ccccc2c1=O, the Potency is reported as inconclusive [inhibitor, single point]. For CCCn1cnc2c(cnn2-c2ccc(F)cc2)c1=O, the Potency was “inactive”. In the case of Fc1ccc2nc(C3CCN(Cc4nc(CC5CC5)no4)CC3)[nH]c2c1, the Potency is reported as inconclusive [inhibitor, partial curve]. With Cc1cccc(C)c1-n1nnnc1-c1cnccc1C(F)(F)F the Potency was inconclusive [inhibitor, partial curve, poor fit]. For Cc1sc2nc(C3CC3)nc(N3CCN(C(=O)c4ccc(Cl)cc4)CC3)c2c1C, the Potency was inconclusive [inhibitor, single point]. In the case of N#C/C(=C\c1ccc(N2CCOCC2)o1)C(=O)NC1CCCCC1, the Potency is reported as inconclusive [inhibitor, partial curve]. With CC1CCCN(CCCNC(=O)C2CC(=O)N(c3ccc(F)c(Cl)c3)C2)C1 (stereo not drawn) the Potency was active: 14.7 µM. With COc1cc(-c2cc(C(=O)Nc3ccc(O)cc3)c3ccccc3n2)cc(OC)c1OC the Potency was inconclusive [inhibitor, single point]. In the case of Cc1ccn2cc(-c3ccc(NC(=O)c4ccco4)cc3)nc2c1, the Potency is reported as inconclusive [inhibitor, single point]. In the case of Cc1cccn2c(=O)c3cc(C(=O)NCc4ccco4)c(=N)n(C(C)C)c3nc12, the Potency is reported as inconclusive [inhibitor, partial curve]. In the case of C=CCOC(=O)Nc1c(C(=O)OC)[nH]c2ccccc12, the Potency is reported as inconclusive [inhibitor, partial curve, poor fit]. With COc1cc(Cl)ccc1OCc1cc(C(=O)N(C)C2CC(C)(C)NC(C)(C)C2)no1 the Potency was “inactive”. In the case of COc1cc(C(=O)c2ccccc2Cl)c([N+](=O)[O-])cc1OC, the Potency is reported as “inactive”. For CCN(CC)CC(=O)Nc1ccc(/C(C)=N/NC2=NCCN2)cc1, the Potency was inconclusive [inhibitor, single point]. For C=CCN=c1scc(-c2ccc(F)cc2)n1/N=C/c1ccccn1, the Potency was inconclusive [inhibitor, single point]. For Cc1ccc(Oc2nc(CN3CCOCC3)nc3sc4c(c23)CCC(C)C4)cc1C (stereo not drawn), the Potency was active: 11.7 µM. With COc1cc(C(=O)NCC(=O)Nc2c(C)cccc2C)ccc1OCc1ccccc1 the Potency was inconclusive [inhibitor, partial curve]. For O=C1C=C(c2cc(F)ccc2F)C[C@@H](c2ccc(F)cc2)C1, the Potency was active: 2.33 µM. In the case of NNC(=O)c1cc2c(N3CCC(Cc4ccccc4)CC3)ncnc2s1, the Potency is reported as inconclusive [inhibitor, partial curve, poor fit]. With Cc1ccccc1OCC(=O)O/N=C(\N)Cc1cccs1 the Potency was inconclusive [inhibitor, single point]. With Cc1ccc(C(C)C)c(OCCCCN2CCNCC2)c1 the Potency was inconclusive [inhibitor, single point]. With COc1cc2c(cc1OC)CN(C(=O)CN1CCN(S(=O)(=O)c3ccc(C)c(C)c3)CC1)CC2 the Potency was inconclusive [inhibitor, single point]. In the case of COc1ccccc1C1=NOC(C(=O)N2CCN(C(=O)c3ccco3)CC2)C1 (stereo not drawn), the Potency is reported as “inactive”. For Cc1ccc(S(=O)(=O)N2CCOCC2)cc1NC(=O)CSc1nnnn1C, the Potency was “inactive”. In the case of Cc1ccc(SCC(=O)N/N=C/c2ccco2)cc1, the Potency is reported as inconclusive [inhibitor, partial curve, poor fit]. For COc1ccc(OC)c(/C=N/NC(=O)C(=O)NCc2cccnc2)c1, the Potency was “inactive”. With OCCCNC(=S)Nc1ccc(Br)cc1Cl the Potency was “inactive”. In the case of Cc1ccc(Cn2c(=N)n(CC(=O)c3ccccc3)c3ccccc32)cc1, the Potency is reported as inconclusive [inhibitor, single point]. With CN1CCN(C(=O)c2cc(Cl)ccc2Cl)CC1 the Potency was “inactive”. With O=C(c1ccc2nc(-c3ccco3)c(-c3ccco3)nc2c1)N1CCC2(CC1)OCCO2 the Potency was inconclusive [inhibitor, single point]. With Cc1cc(C)c2nc(C)cc(Nc3ccc(C(=O)NCCO)cc3)c2c1 the Potency was active: 10.4 µM. For CCNc1nc(Oc2ccc(C(=O)OC)cc2)nc(N(C)C)n1, the Potency was inconclusive [inhibitor, single point]. With CC(=O)c1ccc(NC(=O)CCNS(=O)(=O)c2cc(Br)cnc2N)cc1 the Potency was “inactive”. For CCC(C(=O)OCC(=O)Nc1c(C)nn(-c2ccccc2)c1C)c1ccccc1 (stereo not drawn), the Potency was inconclusive [inhibitor, single point]. With COC(=O)c1ccc(Nc2cc(C)nc(-c3ccccc3O)n2)cc1 the Potency was inconclusive [inhibitor, partial curve, poor fit]. In the case of CC(=O)N1c2ccccc2NC2=C(C(=O)CC(C)(C)C2)C1c1cccn1C (stereo not drawn), the Potency is reported as “inactive”. With COc1ccc(CCn2c(=N)c(C(=O)NCC3CCCO3)cc3c(=O)n4ccccc4nc32)cc1 (stereo not drawn) the Potency was active: 4.65 µM. In the case of O=C1N(C2CCCC2)C[C@@H]2C[C@@H](c3cn[nH]c3-c3ccc(Cl)cc3)N3CCC[C@@]123, the Potency is reported as inconclusive [inhibitor, single point]. For COc1ccc(NC(=O)Cn2c(C(C)C)nc(C)cc2=O)cc1Cl, the Potency was inconclusive [inhibitor, full curve, poor fit]. For CCNC(=S)N(CCc1ccc(S(N)(=O)=O)cc1)C1CC(=O)N(c2ccccc2)C1=O (stereo not drawn), the Potency was inconclusive [inhibitor, partial curve, poor fit]. For COc1cc(CC(=O)N(c2ccccc2)c2nc(C)cs2)cc(OC)c1OC, the Potency was inconclusive [inhibitor, partial curve]. With NS(=O)(=O)c1ccc(CCNC(=O)NC2(C(F)(F)F)Oc3ccccc3O2)cc1 the Potency was inconclusive [inhibitor, single point]. For CC1(C)CC(=O)C=C(NC2CCCC(O)C2)C1 (stereo not drawn), the Potency was inconclusive [inhibitor, partial curve, poor fit]. For CC(=NCCCNC1CCCCC1)C1=C(O)CC(C)(C)CC1=O, the Potency was “inactive”. In the case of CC(C)(CO)Nc1nc(N2CCCC2)nc(N2CCCC2)n1, the Potency is reported as inconclusive [inhibitor, single point]. For COc1ccccc1N1CCN(C(=O)c2cc(=O)c3cc(C)cc(C)c3o2)CC1, the Potency was inconclusive [inhibitor, single point]. In the case of CCCN1CCN(CCCNC(=S)Nc2ccc3nc(N4CCN(CC)CC4)cc(C)c3c2)CC1, the Potency is reported as inconclusive [inhibitor, single point]. In the case of Nc1ccccc1SCC(=O)Nc1ccc2c(c1)OCO2, the Potency is reported as “inactive”. For COc1ccc(-c2nnn(CC(=O)N(Cc3cccs3)C(C)C(=O)NC3CCCC3)n2)cc1OC (stereo not drawn), the Potency was inconclusive [inhibitor, single point]. For Cc1cc2c3c([nH]c2cc1S(=O)(=O)N1CCC2(CC1)OCCO2)CC(C)(C)CC3=O, the Potency was active: 8.28 µM. For COc1ccc(N2CCN(CCNC(=O)c3c(C)cc(=O)oc3C)CC2)cc1, the Potency was active: 11.7 µM. For O=C(Nc1ccc2oc(-c3ccncc3)nc2c1)c1ccc(F)cc1, the Potency was “inactive”. With CCOc1ccc(C(=O)N2CCCCCC2)cc1 the Potency was inconclusive [inhibitor, partial curve, poor fit]. For Cn1c(CNC(=O)c2ccco2)nnc1SCC(=O)Nc1ccccc1Cl, the Potency was “inactive”. With COc1ccccc1N1CCN(C(=O)c2coc(=O)c(Br)c2)CC1 the Potency was inconclusive [inhibitor, single point]. In the case of CCc1nc2ccccc2n1CC(=O)N1CCN(S(=O)(=O)c2cccc(C(F)(F)F)c2)CC1, the Potency is reported as inconclusive [inhibitor, partial curve, poor fit]. For COc1cccc(C2c3[nH]c4ccccc4c3C[C@H]3C(=O)N(c4ccccc4C(=O)NCCCN4CCOCC4)C(=O)N23)c1 (stereo partly drawn), the Potency was active: 14.7 µM. In the case of CCc1cc2cc3c(cc2nc1SCC(=O)N1CCN(C(=O)c2ccco2)CC1)OCO3, the Potency is reported as inconclusive [inhibitor, partial curve]. In the case of CC1(C)Cc2c(C#N)c(SCc3ccccc3)nc(N3CCOCC3)c2CO1, the Potency is reported as inconclusive [inhibitor, partial curve]. With CCCCn1c(N)c(N(CC(C)C)C(=O)c2cccc(S(=O)(=O)N3CCCCC3)c2)c(=O)[nH]c1=O the Potency was inconclusive [inhibitor, single point]. With CCN(C(=O)CN1C(=O)COc2ccc(S(=O)(=O)N3CCCCCC3)cc21)c1cccc(C)c1 the Potency was active: 3.29 µM. In the case of COc1cccc(CNS(=O)(=O)c2ccc3c(c2)N(C(C)=O)CCS3)c1, the Potency is reported as “inactive”. For Cc1ncsc1CCC(=O)N1CCCC(Nc2ccc(F)c(F)c2)C1 (stereo not drawn), the Potency was “inactive”. With CCC(c1nnnn1Cc1ccc2c(c1)OCO2)N1CCN(c2ccccc2)CC1 (stereo not drawn) the Potency was active: 11.7 µM.
